The supplement of paper PMC3334620
In all, about 33,000 sequences were measured (“E-score (-0.5 to 0.5)”: median about -0.01, highest 2% from about 0.26 on). This is one part of the list.

Each sequence was assayed against Ste12 (UniProt P13574) (assay: PBM E-score (8-mer binding enrichment) (E-score (-0.5 to 0.5)); higher = stronger / more preferred TF binding; most listed sequences are background and not binding sites). Conditions: protein concentration: 200 nM; construct: GST-DNA-binding domain.
Protocol: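 Universal 'all 10-mer' protein binding microarrays (Agilent AMADID 015681) probed with GST-tagged S. cerevisiae TFs (full-length or DBD) made by in vitro transcription/translation (PURExpress), about 100-200 nM. Bound TF was detected with fluorescent anti-GST. Each ungapped 8-mer (which stands for itself and its reverse complement) is scored by the PBM enrichment score (E-score), a modified Wilcoxon-Mann-Whitney statistic from -0.5 to +0.5, computed with the Universal PBM Analysis Suite. Scale: above 0.35 generally sequence-specific binding.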

| Sequence | PBM E-score |
| --- | --- |
| GAGGTGAC | 0.154 |
| CGGAATGC | 0.12 |
| ACGTCACG | -0.0725 |
| AATGGCCC | -0.174 |
| GAGTGTCC | -0.141 |
| AATAACCT | -0.0659 |
| AGGCATAC | -0.305 |
| ACATTCAA | 0.0818 |
| CGCTCACC | 0.0234 |
| GCTATACC | 0.0717 |
| AGCACCTG | -0.15 |
| AACGGTCC | -0.193 |
| AAACAAGC | 0.202 |
| ACCTGCCC | -0.0454 |
| AATGCCAA | 0.0861 |
| TACTCGCA | -0.13 |
| AAGCTACC | -0.0906 |
| ACACTCAA | 0.215 |
| GTTACGGA | -0.0504 |
| GACATCGA | -0.11 |
| CGCACCGC | 0.0733 |
| ATCGAGGA | 0.117 |

| Sequence | PBM E-score |
| --- | --- |
| ATGTATTA | 0.248 |
| GGCCCGAC | 0.15 |
| AACTCTTA | 0.0104 |
| ACTGGAGA | -0.134 |
| ATCACAAG | 0.0283 |
| TCGATCCA | -0.116 |
| ATGCGCGA | -0.174 |
| ATGCTTGA | -0.0711 |
| AAAGACCC | -0.0691 |
| ATCAGCAA | -0.0435 |
| AGTAGTCA | -0.0774 |
| CGGATCCA | 0.0838 |
| GCTGAAAA | 0.17 |
| AACACCAC | 0.0391 |
| CTATGAAC | -0.0289 |
| GAAGGCTA | -0.133 |
| GACGTGTA | -0.2 |
| AACACGAA | 0.22 |
| CTCCCGGA | 0.057 |
| AAGATGCG | 0.119 |
| CTCTTTTC | 0.163 |
| CTGAGAAA | -0.0117 |

| Sequence | PBM E-score |
| --- | --- |
| ATCCGATA | 0.063 |
| GGGTATCA | -0.132 |
| CACGACAA | -0.0629 |
| CTCCCCTC | 0.28 |
| AAGTACAA | 0.171 |
| AGAGGACT | -0.341 |
| AGGTTTAC | -0.0517 |
| AGACCAAC | -0.0795 |
| CAAGGATG | -0.228 |
| AAGAGCTA | -0.075 |
| CTTGGCGA | -0.216 |
| ACTCGCCC | -0.0798 |
| GGCTCAAA | -0.119 |
| CCAACCTC | -0.0214 |
| AAAAATAT | 0.339 |
| GCGATCAC | -0.145 |
| AATGCCGG | 0.0373 |
| TAATTAGA | 0.161 |
| AAGAAACC | 0.0773 |
| ACACGTTC | -0.0176 |
| TGACATCA | 0.0837 |
| ACCATCGA | -0.00544 |

| Sequence | PBM E-score |
| --- | --- |
| GTCAGCAA | 0.0621 |
| AGCCATTA | -0.0478 |
| ACGGCCGG | -0.0141 |
| TAAGCGAA | 0.0168 |
| AATCTTGC | 0.162 |
| ACATTTGA | 0.221 |
| TATAACCA | 0.145 |
| CTAAAGTC | -0.151 |
| CCTGGAGC | 0.0851 |
| ACTATTAC | 0.0443 |
| CATAGGCC | -0.036 |
| CTACATAA | -0.0741 |
| GTTGCAAC | 0.186 |
| GAGAGAAA | 0.0704 |
| CCCGCGCG | 0.114 |
| CGGGTGAA | 0.248 |
| GGCCGGAC | -0.0603 |
| GCCAGCTA | -0.192 |
| AGTCCGGG | -0.0471 |
| CGTCGCCA | -0.00322 |
| CTGCCTAC | -0.0361 |
| ATCCAGGG | -0.0741 |

| Sequence | PBM E-score |
| --- | --- |
| GGACCCAA | -0.094 |
| GCTATTCA | -0.164 |
| TAACCGTA | 0.0312 |
| CGTTCACC | -0.0406 |
| AAAACGTA | 0.206 |
| CCATTCCC | -0.0529 |
| CGTGAACG | -0.225 |
| CTAGGATA | 0.0183 |
| ACGCTATG | -0.151 |
| GCTTTAAC | 0.0246 |
| ATAAATTG | 0.321 |
| ATTGATTG | 0.0163 |
| GACGGATC | -0.137 |
| AATACGTG | 0.0328 |
| AGTATCTC | -0.143 |
| AAAACATA | 0.208 |
| GACTTTGC | -0.111 |
| ACCAGACC | 0.031 |
| CCAACGAC | -0.106 |
| ATAACGAC | -0.0302 |
| GGGGAATA | 0.0166 |
